Results reported in the supplement of paper PMC7826260.
The other results are listed elsewhere or left out. The data describe in vitro nicking of single-stranded DNA by Rep domains at 3 µM enzyme and 37 °C for 1 h; the strands have 90 letters, of which the middle is given. Uncut reads are compared with the no-enzyme pool on a log2 scale; strong cutting gives strongly negative numbers. There is no active / inactive call. Counts are relative to all reads, so uncut sequences can rise above 0 when many others are cut.

How the values were obtained:
Test in all cases: uncleaved DNA left, log2 of reads against the no-enzyme library (log2 ratio); higher = less cleavage (more negative = more Rep cleavage of the k-mer); sequences stand for … in CTCGTCCG…ACCGGAGA
[1] = system: T1, Rep nickase domain of Muscovy duck circovirus
T1 sequence (protein, residues 1-111, tag omitted): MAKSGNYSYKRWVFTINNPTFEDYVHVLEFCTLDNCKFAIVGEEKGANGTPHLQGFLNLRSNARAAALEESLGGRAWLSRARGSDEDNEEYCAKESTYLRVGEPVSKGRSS
Procedure: (§1)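 A pool of 90-nt single-stranded DNAs with seven random bases just before the constant AC of the nick site (name = the seven bases) was cut by 3 µM recombinant His6-SUMO-tagged Rep nickase domain (300 nM DNA, 50 mM HEPES pH 8.0, 50 mM NaCl, 1 mM MnCl2, 1 h, 37 °C, three replicates). Uncut DNA was amplified and sequenced.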

[2] = system: T2, Rep nickase domain of banana bunchy top virus
T2 sequence (protein, residues 1-94, tag omitted): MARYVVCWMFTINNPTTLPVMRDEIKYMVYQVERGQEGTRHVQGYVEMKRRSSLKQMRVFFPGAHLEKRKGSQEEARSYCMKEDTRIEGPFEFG
Procedure: as §1

[3] = system: T3, Rep nickase domain of cabbage leaf curl virus
T3 sequence (protein, residues 1-116, tag omitted): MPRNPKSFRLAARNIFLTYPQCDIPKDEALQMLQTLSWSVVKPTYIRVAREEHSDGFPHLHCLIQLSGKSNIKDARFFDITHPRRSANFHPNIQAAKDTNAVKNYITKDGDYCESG
Procedure: as §1

[4] = system: T4, Rep nickase domain of chickpea chlorotic dwarf virus
T4 sequence (protein, residues 1-124, tag omitted): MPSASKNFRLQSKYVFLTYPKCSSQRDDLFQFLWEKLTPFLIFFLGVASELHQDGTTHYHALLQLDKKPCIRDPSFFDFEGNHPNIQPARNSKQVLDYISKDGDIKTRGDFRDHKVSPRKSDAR
Procedure: as §1

[5] = system: T5, Rep nickase domain of faba bean necrotic yellows virus
T5 sequence (protein, residues 1-98, tag omitted): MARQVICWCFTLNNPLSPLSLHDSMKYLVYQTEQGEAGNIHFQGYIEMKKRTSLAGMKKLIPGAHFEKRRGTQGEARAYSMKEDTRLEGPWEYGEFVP
Procedure: as §1

[6] = system: T6, Rep nickase domain of maize striate mosaic virus
T6 sequence (protein, residues 1-117, tag omitted): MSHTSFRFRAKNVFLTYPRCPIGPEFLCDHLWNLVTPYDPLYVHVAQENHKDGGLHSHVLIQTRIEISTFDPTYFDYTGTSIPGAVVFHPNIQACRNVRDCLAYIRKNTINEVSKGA
Procedure: as §1

[7] = system: T7, Rep nickase domain of porcine circovirus 2
T7 sequence (protein, residues 2-116, tag omitted): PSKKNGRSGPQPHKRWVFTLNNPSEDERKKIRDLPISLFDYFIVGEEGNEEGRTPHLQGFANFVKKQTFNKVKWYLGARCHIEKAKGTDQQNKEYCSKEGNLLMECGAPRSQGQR
Procedure: as §1

[8] = system: T8, Rep nickase domain of tomato golden mosaic virus
T8 sequence (protein, residues 1-124, tag omitted): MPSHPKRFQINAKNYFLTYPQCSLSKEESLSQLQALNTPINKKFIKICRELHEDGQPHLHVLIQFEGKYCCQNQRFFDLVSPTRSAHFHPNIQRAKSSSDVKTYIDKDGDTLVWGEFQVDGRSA
Procedure: as §1

[9] = system: T9, Rep nickase domain of tomato yellow leaf curl virus
T9 sequence (protein, residues 1-136, tag omitted): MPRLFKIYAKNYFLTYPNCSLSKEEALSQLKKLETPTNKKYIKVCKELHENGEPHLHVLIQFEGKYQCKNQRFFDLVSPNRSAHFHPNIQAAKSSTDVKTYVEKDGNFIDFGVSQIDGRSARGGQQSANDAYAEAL
Procedure: as §1

[10] = system: T10, Rep nickase domain of wheat dwarf virus
T10 sequence (protein, residues 1-137, tag omitted): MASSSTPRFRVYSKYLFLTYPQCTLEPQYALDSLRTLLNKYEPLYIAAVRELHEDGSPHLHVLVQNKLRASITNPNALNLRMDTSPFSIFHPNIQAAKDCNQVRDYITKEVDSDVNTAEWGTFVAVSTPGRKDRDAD
Procedure: as §1

Sequence	uncleaved DNA left (log2) [1]	uncleaved DNA left (log2) [2]	uncleaved DNA left (log2) [3]	uncleaved DNA left (log2) [4]	uncleaved DNA left (log2) [5]	uncleaved DNA left (log2) [6]	uncleaved DNA left (log2) [7]	uncleaved DNA left (log2) [8]	uncleaved DNA left (log2) [9]	uncleaved DNA left (log2) [10]
TTAGTTT	0.0681	0.00454	0.0818	-1.95	0.122	0.133	-0.0375	0.0576	-0.0176	-0.0161
GCTTACT	-2.23	-0.229	-0.096	-1.99	-0.0614	0.145	-2.66	0.000357	0.0984	-0.131
CGCAACT	-0.00746	-0.17	-0.118	-2.11	-0.0271	-0.127	-0.372	-0.139	-0.0521	-0.165
AAACATC	0.000906	0.0186	-0.134	-0.803	0.0157	-0.604	0.155	-0.0578	0.0775	0.11
GTCGAAT	-0.0283	0.125	0.31	0.798	0.0275	1.66	-0.0338	0.0272	0.0407	0.164
GCGGGGG	0.000869	-0.0407	0.245	0.691	0.0393	0.939	0.175	-0.0128	-0.0597	0.00985
CAACGGA	0.0312	0.021	0.0397	-0.0241	0.0354	-0.291	0.0599	0.0524	-0.00836	-0.0413
TTGGTAA	0.108	0.194	0.418	0.632	0.179	0.925	0.0848	0.134	0.0786	0.117
GGCAACA	-0.174	-0.0236	0.543	1.17	-0.0302	1.78	0.159	-0.0431	-0.0884	0.0688
GTTCTCT	0.0349	0.123	0.34	0.778	-0.0617	1.74	0.0935	0.131	0.0754	0.0895
ATTCCAG	0.0714	0.134	-0.204	-0.0891	0.114	-0.856	-0.078	0.0954	0.273	0.00706
TATTTTT	-3.79	-3.6	-3.12	-3.23	-0.92	-0.612	-3.85	-1.59	0.0944	-2.27
AGTATCG	-0.0573	-0.106	-0.848	-0.699	0.02	-1.29	0.0781	-0.101	-0.095	-0.124
CGCCCTG	-0.165	-0.155	-0.191	0.382	-0.0857	1.13	-0.215	-0.184	-0.173	-0.161
AACTTAC	-0.0469	0.0191	-0.386	-2.28	-0.0149	-0.877	-0.314	-0.0529	-0.00864	-0.0655
GTATGCT	-0.512	0.145	0.00818	0.247	0.011	0.328	-0.43	0.122	0.116	0.13
CATGGAA	-0.0775	-0.0481	0.0297	0.746	-0.0416	0.28	0.116	0.00185	-0.0464	-0.000817
TCACGTC	0.0392	-0.114	-0.0451	-0.474	-0.132	-0.809	-0.184	-0.108	-0.135	-0.163
GCTTCGT	-0.007	-0.0762	-0.246	-0.207	-0.00803	-0.752	-0.099	-0.0561	0.0966	-0.0996
CAGGGCG	0.176	0.0763	-0.683	0.198	0.137	-0.451	0.296	0.0907	0.175	-0.0692

Sequence	uncleaved DNA left (log2) [1]	uncleaved DNA left (log2) [2]	uncleaved DNA left (log2) [3]	uncleaved DNA left (log2) [4]	uncleaved DNA left (log2) [5]	uncleaved DNA left (log2) [6]	uncleaved DNA left (log2) [7]	uncleaved DNA left (log2) [8]	uncleaved DNA left (log2) [9]	uncleaved DNA left (log2) [10]
CTGCGTC	-0.0151	-0.0494	-0.711	-0.731	-0.0242	-1.08	0.00386	-0.165	-0.103	-0.26
AAGGAAC	-0.0567	-0.0482	0.0661	0.671	-0.045	0.314	0.124	0.0652	-0.124	0.00189
AAAGATT	0.0736	0.0596	-1.18	-2.25	0.0779	0.776	-0.462	-0.0193	-0.181	-0.199
GTGTCTG	-0.0646	0.0321	0.0845	0.637	0.0138	1.21	0.0485	0.0321	-0.0205	0.068
TATTGAT	-3.47	-3.32	-1.14	-2.09	-0.0638	-0.265	-3.72	-0.139	0.0692	-0.158
CTCGTCG	-0.0743	-0.13	-0.935	-0.586	-0.00208	-0.982	0.00811	-0.111	-0.132	-0.0714
CACCGAT	0.0752	-0.0882	0.0697	-0.316	-0.0238	0.0773	-0.212	0.112	0.00308	0.0164
CAATACC	-0.0758	0.0137	-2.99	-2.91	-0.0373	-1.36	-0.857	-0.762	-0.0821	-0.672
GTATCGA	0.0284	0.0158	0.14	0.532	-0.0545	0.401	0.0711	0.0236	0.00317	0.0315
AAATATG	0.0109	-0.106	-0.534	-0.417	0.0837	-1.15	0.117	0.00222	0.0958	0.0181
CTAAGCT	0.1	0.116	-2.37	-2.85	0.0859	-0.836	0.102	-0.121	0.0508	-0.156
GTGCCAA	0.0446	0.0592	0.452	1.03	-0.0129	1.72	0.179	0.168	0.167	0.19
AGGGGCA	0.164	0.0385	0.797	1.78	0.0887	2.03	0.355	0.187	0.0999	0.264
AAAATCA	0.129	0.169	0.126	-1.81	0.139	-0.137	0.101	0.0879	0.137	0.19
TGCGCAA	0.0624	0.114	-0.08	-0.0331	-0.0586	-0.499	0.126	0.123	-0.00482	0.061
TGAAAAC	0.0746	0.0755	0.362	0.465	0.00839	0.577	0.0784	0.0639	-0.00974	0.157
AGACTTG	0.0136	0.0374	-0.0722	0.406	-0.128	0.967	0.0315	-0.0556	-0.0957	-0.0322
TTTAACT	0.0226	0.0461	-0.382	-2.66	0.0453	-0.459	-1.31	-0.0908	-0.0291	-0.0712
AGCTGGG	0.0826	0.0528	-0.368	-0.222	0.0358	-0.48	0.0922	0.0374	0.00172	-0.00652
GAATGGC	-0.0338	-0.00525	-0.0839	-0.0143	0.021	-0.629	-0.0263	0.000711	0.0664	0.000528

Sequence	uncleaved DNA left (log2) [1]	uncleaved DNA left (log2) [2]	uncleaved DNA left (log2) [3]	uncleaved DNA left (log2) [4]	uncleaved DNA left (log2) [5]	uncleaved DNA left (log2) [6]	uncleaved DNA left (log2) [7]	uncleaved DNA left (log2) [8]	uncleaved DNA left (log2) [9]	uncleaved DNA left (log2) [10]
CGGAGCT	0.0717	0.16	0.217	0.277	0.11	0.227	0.0465	0.102	-0.0125	0.109
CTCGGCC	0.00976	-0.0457	0.0151	0.0429	0.143	-0.521	0.132	0.0669	-0.000935	0.0402
TAAAACA	0.0741	0.116	-2.38	-2.68	0.0731	-0.699	-0.0143	-0.0785	0.0774	-1.12
CCTCATC	0.124	0.0408	0.0754	-0.159	0.0191	-0.637	-0.0118	-0.00328	0.0203	0.0335
TGAGGAC	-0.107	0.0696	0.397	1.32	-0.0531	1.4	0.106	-0.00375	0.0118	0.0526
GGAGCGA	0.0306	0.0213	0.158	0.238	0.00487	0.0344	0.021	0.0298	0.0356	-0.0138
CGCAAGT	0.0282	-0.0397	0.046	-0.128	0.022	-0.456	0.043	-0.158	0.0347	-0.0169
TGTTAGC	0.00636	-0.0588	-0.0352	-0.119	0.0363	-0.74	-0.0236	-0.0623	-0.061	-0.0557
GAAGAAA	0.01	0.062	0.279	0.542	0.0365	0.805	0.106	0.0899	0.063	0.149
CTCGGTC	0.125	-0.021	0.181	0.0364	-0.0248	-0.347	0.0594	0.000379	-0.000458	0.0128
GAAATGT	0.0708	-0.0225	-0.195	-0.826	0.0535	0.342	-0.225	-0.00945	-0.0305	-0.0825
TAGCTGC	0.111	-0.0414	0.308	1.21	0.0762	1.2	0.177	0.0106	0.015	-0.011
GCCTGAG	0.03	0.0762	-0.47	-0.287	-0.0738	-0.759	0.097	-0.0752	0.116	-0.151
GTGCCGT	-0.0456	0.033	-0.0488	0.344	-0.107	-0.0975	-0.0442	-0.185	-0.0474	-0.0581
TGCGCCC	-0.0441	-0.0975	-0.0556	-0.25	-0.076	-0.416	0.0162	-0.0991	0.0372	-0.129
ATCGTTC	0.163	0.0167	0.00539	-0.576	0.023	-0.694	0.0395	0.137	0.00179	0.0606
GCGGGAT	0.322	0.224	0.522	1.64	0.0557	1.95	0.36	0.203	0.0645	0.162
TCCTCGA	-0.00518	-0.0723	-0.244	-0.675	-0.0474	-1.06	-0.017	-0.113	-0.0894	0.0429
